Source: patent US20160046957

Target: human coagulation Factor X (UniProt P00742)
Sequence of UniProt P00742 (P00742 whole entry, looked up): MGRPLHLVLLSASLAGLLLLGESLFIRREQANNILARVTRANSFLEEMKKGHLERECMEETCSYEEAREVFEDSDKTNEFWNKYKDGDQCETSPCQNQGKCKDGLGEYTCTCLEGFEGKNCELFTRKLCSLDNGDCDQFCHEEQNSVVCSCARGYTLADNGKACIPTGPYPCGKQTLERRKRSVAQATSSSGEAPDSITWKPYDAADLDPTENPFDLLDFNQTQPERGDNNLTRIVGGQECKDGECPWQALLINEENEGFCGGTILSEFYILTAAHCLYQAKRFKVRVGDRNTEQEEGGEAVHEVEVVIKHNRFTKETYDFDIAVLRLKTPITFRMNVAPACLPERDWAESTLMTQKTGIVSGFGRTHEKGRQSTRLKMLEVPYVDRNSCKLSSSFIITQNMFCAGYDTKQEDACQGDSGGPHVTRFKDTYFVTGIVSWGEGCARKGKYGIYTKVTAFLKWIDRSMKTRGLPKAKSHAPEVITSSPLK

Substance: human furin (sequence left out)
- degree of processed FX against concentration of secreted furin (FIG. 5): only partial processing of FX is feasible with low concentrations of secreted furin (<20 U/mL), whereas higher levels of secreted furin correlate with better processed FX
